This is one part of the list.
test system: PfHDP1 homeodomain (GST-tagged); assay: gcPBM binding intensity (ln(normalized median fluorescence intensity)); higher = stronger DNA binding
In short: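 In this array assay, P. falciparum DNA-binding domains with a GST tag, expressed in E. coli, were applied for 1 h to primer-extended double-stranded 36-bp intergenic genomic probes and negative controls on an Agilent 4 × 180k array. Bound protein was visualised with Alexa488 anti-GST antibody at 488 nm. Binding intensity is the highest Masliner-normalised natural-log median intensity across replicate spots of either probe orientation.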

Sequence | gcPBM binding intensity (ln)
TTTTCTTTTCTCTTCTTTTTCTCCCATTATTAATCT [XGTACX_negctrl_site406] | 6.36
TTTTTATTATTTAAATGTACATATAAATATATATAT [XGTACX_site6870] | 7.71
ATTTCATTTATAAGGATATCTACTTTTTATTTTAAT [GTGCAC_negctrl_site59] | 6.31
TCTATCTTTTCCAAACGTACATTTTTTATATAAATT [XGTACX_site5352] | 7.15
AAACGAAAAAAATGGTGTACATTAAAATGAAAATTG [XGTACX_site7040] | 6.54
ATATATATCTTTTGTGTGCACATATATATAATATAT | 10.9
AAAAAAAAAATATACACACACACATACACATAAATA [CACACA_site3808] | 7.11
TTATATTCTATTTATTGTACTTAAATATATATATAT [XGTACX_site6400] | 8.82
TATATATCGCATAAAACACACAAAAAAAAAATTAAA [CACACA_site7767] | 6.6
TATTTTCCCTCCATATGTACTTAATTATAAGCACAT [XGTACX_site4000] | 6.62
TTTATGTAAAAATATAGTACATATTAAAAGATAAGA [XGTACX_site8134] | 6.59
ATATATTCCATAAAGGTGCTGTTAACGTGTCAACGT [GTGCAC_site9402] | 6.26
TAAGTATACACATACACACACACACTAAAAAAAAAA [CACACA_site6337] | 6.95
ATAAAATACATATAAACACACATATAAACCGACATA [CACACA_site2477] | 6.86
TAAACATAAATATGCACACATATACAGATATTCATA [CACACA_site5471] | 9.87
TTTTACTTAAGACACACACACACAAAAAAAAAAAAA [CACACA_site6573] | 6.43
AGTTTTTACTCTAATGGTACAGTGCAACTAATAAAT [XGTACX_site6950] | 8.68
TTTTTTTTCCTAATGTGTACTAAAAATGAACAATAA [XGTACX_site5248] | 6.66
AAAAAAAAGAAACACACACACATACACATAAATATA [CACACA_site3807] | 6.9

Sequence | gcPBM binding intensity (ln)
ATATTTTTTTCATAGACACACACAATATATCTGTTT [CACACA_site8993] | 6.71
AACATTATTTTGTGTACACATTCGGTTATATTATAT [CACACA_site5628] | 8.28
ACTTTATTTTCCTGTACACACATTTGACATATTAAA [CACACA_site3378] | 7.77
AAAAACAAAAAAAAAACACACAATTCTAGTTATTTT [CACACA_site2767] | 6.04
CACCAAACTAAATGTACACACATACATAAATATAAA [CACACA_site4765] | 6.57
TTTAAATTTTAATATGCACACAAAATGTTATATTAA [CACACA_site8015] | 9.9
TTTCTGATATTTTTATATTTTCTTATATATATATAT [GTGCAC_negctrl_site652] | 8.86
AATACGAAGGATAAGAGTACTAATTAAATAAATGAA [XGTACX_site523] | 6.87
ATATAAGAATAAATAGTGCAAAATAAATGATTATTT | 9.83
GTATATAAGTATATATGTACATATATTTTATATATA [XGTACX_site4745] | 6.33
TTTTATAATTTAAAATAATGAAACTTCTTTCTATTT [TGCATGCA_negctrl_site324] | 6.03
TTTTTTTTTTTTTTGGTGCGATCTTTTAAATGATCC | 6.48
TTTGAAAAGTATGAGGTGCAAAAAATGTAATGAAAT | 9.92
TATATTATTATGCATAGTACGTACTGTGATAAGAAT [XGTACX_site2956] | 6.66
CATTTTAAAACAGACACACACCAAAAAAAAAAAAAA [CACACA_site6259] | 6.42
TTTTTCTGTCGTTGTTGTACTTGAGGAGTAACAATT [XGTACX_site7852] | 7
TTTTCAATTAATAATACACACATGTATATATTATTA [CACACA_site3311] | 6.81
TACAAATACATTACATGTACATATTTAATAATATCA [XGTACX_site2075] | 6.44
AAGAAAAATATATATATAAATAAATAAATATATATA [TGCATGCA_negctrl_site330] | 6.15

Sequence | gcPBM binding intensity (ln)
TAATAAACCAAACTAAACAATATATCAAAAAGCACA [CACACA_negctrl_site269] | 6.99
AATAATAAATATATATATATATATATATATATATTT [CACACA_negctrl_site786] | 7.09
GCCTTTTTATTTAGAACACACACAAAAAAAAAAAAA [CACACA_site8520] | 6.47
TATTATATCGAACACTGTACTTTTTTATTCAACCTA [XGTACX_site493] | 6.59
ATATTATATAATAATGCATGCACCTTATTTTCATTT [TGCATGCA_site405] | 8.68
ATTATATTATTTTAAAGTACACACATATATTAATAT [XGTACX_site4769] | 6.85
AACAAAATAAAAATAACACACACATTTATATATATA [CACACA_site8313] | 7.55
AAAAGTTGTTTATAATGTACAAGGTAGAAAAAAACA [XGTACX_site1454] | 7.04
TAAATGGATTGTTCAGGTACACATAAATATGATATT [XGTACX_site6963] | 6.32
TGACTACATAAAATGACACACACAAACTTTAAAATT [CACACA_site9151] | 6.51
ATATATTTTTAGCACAGTACAATATAATTAAATATA [XGTACX_site6779] | 7.02
ATAAATACTTTTTGGTGTACACTTTTAAATGAAAAA [XGTACX_site3042] | 6.72
ATTTTTCCTCTCTTTTGTACTTATATATATATATAT [XGTACX_site7405] | 9
CAATTAAAGAAAAACAGTACGTGTATCAAACATCCT [XGTACX_site8990] | 6.52
ATATGCTAATAAAATTGTACATATTATTCATATTGT [XGTACX_site2344] | 6.37
AAAAAAAAAAAAAAAAAAATAAAAAATAAATAAATA [CACACA_negctrl_site1498] | 6.57
TATATATGTATGTATGCATGCCCTTTTTTAAAAAAA [TGCATGCA_site434] | 6.81
AAGAAAAAACAAACATGTACACATAATTTAGTTTTT [XGTACX_site3121] | 5.93
TAGTATTATTATTATGCACACAAAAATATTTATACA [CACACA_site9219] | 10.4

Reference: the supplement of paper PMC11417369
